Source: ChEMBL document CHEMBL4888484, “Replenishing the malaria drug discovery pipeline: Screening and hit evaluation of the MMV Hit Generation Library 1 (HGL1) against asexual blood stage Plasmodium falciparum ,using a nano luciferase reporter read-out” (2022)
The whole screen tested about 150,000 compounds, of which about 540 (0.36%) showed an effect of 50% or more. This is one part of the list.

These molecules were tested on Plasmodium falciparum (assay: Primary screen in NF54 nanoGlo assay, in single point, at 2uM, 72h; a lower Z score goes with more inhibition). Conditions: timepoint 72 hour.
Type: functional, Erythrocyte

Row | SMILES | % Inhibition [%] | Z score
1 | O=C(c1ccccc1)N1CCN([C@H]2CC(=O)N(Cc3ccccc3)C2=O)CC1 | -41 | 4.86
2 | Cc1ccccc1[C@@H](O)CNC(=O)NCCCOC1CCCC1 | 3 | -0.38
3 | CNc1nc(C(=O)N2CC[C@@](O)(C3CCOCC3)[C@H](C)C2)cs1 | -15 | 1.51
4 | CC1(C)C2CCC1(C)C1(C2)NC(=O)c2ccccc2O1 (stereo not given) | -16 | 1.92
5 | O=C(NC1CCCCC1)C1CC(O)CN1c1ccncn1 (stereo not given) | 17 | -2.13
6 | O=c1ccccn1CCNc1ncc(Br)cn1 | -7 | 0.79
7 | CCO[C@H]1CCCN(C(=O)CN2C(=O)NC3(CCCC3)C2=O)C1 | 0 | -0.03
8 | c1ccc(Cn2ccnc2CN2CCN3CCCC[C@H]3C2)cc1 | -15 | 1.59
9 | COc1ccccc1Cc1nc([C@H]2CCCNC2)n(-c2cccnc2)n1 | 6 | -0.64
10 | Cc1ccc(C)c2c(C)c(C(=O)N3CCC[C@@]4(CCCO4)CC3)[nH]c12 | -7 | 1.32
11 | COc1cc2c(cc1OC)C1(CCCC1)CN(CCC(C)=O)C2 | -1 | 0.1
12 | CCc1nc(NC(=O)NCc2nc(C)c(C)s2)nn1C | -10 | 1.25
13 | C[C@@H]1OCCO[C@@H]1C(=O)Nc1cncc2ccccc12 | 6 | -0.69
14 | C=CCN(Cc1nc(-c2cccc(Cl)c2)oc1C)[C@H]1CCS(=O)(=O)C1 | -25 | 3.71
15 | O=C(Cc1ccccc1)NCc1ccc(Cn2cccn2)cc1 | -7 | 0.91
16 | O=C([C@H]1CCCN(c2c(-c3ccccc3)c3cc(Cl)ccc3[nH]c2=O)C1)N1CCc2ccccc2C1 | -19 | 2.92
17 | O=C(NC[C@H]1CCc2ccccc2O1)c1cnc(-c2cccnc2)nc1 | -21 | 3.46
18 | CCCOCc1ccccc1CN=C(NC)NC | 5 | -0.55
19 | CCCCC[C@H](C)NC(=O)CS(=O)(=O)Cc1c(C)noc1C | -1 | 0.08
20 | CCN(CCOc1cccc(Cl)c1)C(=O)CN1C(=O)CN(C)C1=O | -13 | 2.31
21 | CCOC(=O)N1CCc2c(c3ccccc3n2Cc2ccccc2)C1 | 0 | -0.07
22 | Cc1c(C(=O)NCc2ccccc2)c2ccccn2c1C(=O)c1ccc(Cl)cc1 | -14 | 1.61

Row | SMILES | % Inhibition [%] | Z score
23 | COCc1nc(CN(C)Cc2nccn2CC(F)(F)F)cs1 | 1 | -0.11
24 | CN(C(=O)NCCc1ccc2c(c1)CCO2)C1CC[S+]([O-])CC1 (stereo not given) | 1 | -0.07
25 | Cn1ccnc1[C@H](NC(=O)c1ccc(Cl)c(NC(=O)c2cccs2)c1)c1ccc(Cl)cc1 | 2 | -0.22
26 | Nc1ncccc1CN1C[C@H](NC(=O)C2CCOCC2)[C@@H](C2CC2)C1 | 3 | -0.62
27 | FC(F)(F)c1ccc(N2CC(Nc3nccn4nnnc34)C2)cc1 | -11 | 1.07
28 | CCn1ncnc1[C@@H]1CC(=O)Nc2cc3c(cc21)CCc1ccccc1N3 | -3 | 0.42
29 | Cc1cc(C(=O)Nc2cccc(C)c2C)c2c(C)nn(-c3ccc(F)cc3)c2n1 | -33 | 3.84
30 | COc1ccccc1CN1CCN(C(=O)[C@H]2CCCN(S(C)(=O)=O)CCC(=O)NCC2)CC1 | -16 | 2.03
31 | O=C(Nc1ccc2c(c1)OCO2)N1CCC(Oc2cccc3cccnc23)CC1 | -4 | 0.74
32 | CN(C[C@H]1CCCO1)C(=O)C(C)(C)S(C)(=O)=O | -14 | 2.22
33 | Cn1cc(CCS(=O)(=O)c2cccc(Br)c2)nn1 | -3 | 0.43
34 | CNc1cc(-c2cncc3ccccc23)c2cc[nH]c2n1 | -6 | 1.09
35 | Cc1ccc(S(=O)(=O)c2cn(CC(=O)N3CCOCC3)c3ccccc23)cc1 | -13 | 1.44
36 | O=C(NC1CCCCCC1)C1CCN(c2nc3ccccc3[nH]2)CC1 | 2 | -0.32
37 | OCCC1CCCCN1CC(O)COc1ccc2ccccc2c1 (stereo not given) | -5 | 0.74
38 | O=C(CC1(O)CCCCC1)N[C@H]1CCN(C2CCCCC2)C1=O | 2 | -0.18
39 | c1ccc(C2(c3nc([C@H]4CCOC4)no3)CCCC2)cc1 | -14 | 1.31
40 | O=C(NCc1cccnc1N1CCC[C@H](O)C1)c1ccc(Cl)c(F)c1 | -9 | 1.2
41 | COc1ccc(CNC(=O)[C@H]2CCn3c(nc4ccccc43)C2)cc1 | -9 | 0.86
42 | Cc1cc(C)c2c(CC(=O)N3CCOC[C@@H](CO)C3)coc2c1C | 9 | -1.36
43 | Cc1ccc(F)c(N2CCC[C@H](NC(=O)Cn3cccn3)C2)c1 | 1 | -0.17
44 | CN1CCN(c2ccccc2NC(=O)N[C@@]2(C)CCS(=O)(=O)C2)CC1 | -4 | 0.56

Row | SMILES | % Inhibition [%] | Z score
45 | Cc1nn(-c2ccccc2)c2[nH]cc(C(=O)Nc3cccc4ccccc34)c(=O)c12 | -25 | 3.16
46 | CCn1nnnc1NC(=O)NC[C@H]1CC(C)(C)OC1(C)C | 10 | -1.84
47 | O=C(c1ccco1)N1CCN(c2cc(-n3cccn3)ncn2)CC1 | -19 | 2.96
48 | CC(C)c1ccc(N2C(=O)[C@H](CC(=O)N3CCc4ccccc4C3)N=C2O)cc1 | -14 | 1.77
49 | Cc1ncc2c(c1-c1noc(C3CCCCC3)n1)CCN(C(=O)NC(C)C)C2 | -11 | 2.08
50 | O=C(N1CCN(C(=O)C(F)(F)F)CC1)C(F)(F)F | -15 | 1.89
51 | CC(=O)N1CCC2(CC1)N=C(c1ccc(F)cc1)C[C@@H](c1cc(Cl)ccc1O)N2 | -11 | 1.6
52 | Cc1csc(CNC(=O)[C@H]2CCC(=O)N(Cc3ccc(Cl)cc3)C2)n1 | -3 | 0.38
53 | CC1CCCN(CC(=O)NC(C)(C#N)C2CC2)C1 (stereo not given) | -6 | 0.62
54 | CC(C)CN1CC2(CCN(C(=O)Nc3ccc(F)c(F)c3)CC2)CC1=O | -17 | 2.01
55 | O=C(c1ccc(-n2ccc3ccccc32)s1)N1CCN(c2ccccc2)CC1 | -13 | 1.67
56 | NS(=O)(=O)c1cnccc1NC1CCCCC1 | -41 | 4.81
57 | COc1ccc(CN2CCN(C(=O)C3CCCC3)CC2)cn1 | 10 | -1.24
58 | CS(=O)(=O)N(CC(=O)NC1CC2CCC1C2)c1ccc(OCc2ccccc2)cc1 (stereo not given) | -8 | 0.89
59 | Cn1c(CN2CCOCC2)nnc1[C@H]1CCCN(c2ncccc2F)C1 | -10 | 1.28
60 | Cc1nc(N2CCCCCCC2)ncc1[C@H](C)Nc1ccnc(N)n1 | -6 | 0.72
61 | CN(Cc1cc(-c2ccccc2)no1)C(=O)c1cn2c(n1)CNCC2 | -17 | 1.55
62 | CC(C)[C@H](CNc1ncnc2ccsc12)N1CCN(C)CC1 | 32 | -4.26
63 | O=C(CCCc1nc(C2CC2)nn1[C@H]1CCS(=O)(=O)C1)c1ccccc1 | -8 | 1.04
64 | COCC1(C(=O)NC[C@H]2CN(C)CCO2)CCC1 | -14 | 1.79
65 | COC[C@H](C)C(=O)Nc1cc(C)ns1 | 8 | -0.84
66 | O=C(Cc1nnc(-c2ccccc2)o1)NC[C@H]1CCCO1 | -9 | 1.55

Row | SMILES | % Inhibition [%] | Z score
67 | COc1cc(Cl)cc(C(=O)N2CCOC[C@@H](CO)C2)c1 | -12 | 1.2
68 | Cc1cc(C(=O)NCCn2ccnc2C)no1 | -19 | 2.73
69 | Cc1[nH]ncc1S(=O)(=O)N1CCN(CC(F)(F)C(F)F)CC1 | 12 | -1.31
70 | COc1ccc(NC(=O)C2(N(Cc3cccnc3)C(=O)CC3C(c4c(C)[nH]c5ccccc45)C3(C)C)CCN(C)CC2)cc1 (stereo not given) | -23 | 2.66
71 | CN(CC1(CO)CCCC1)c1ncccc1F | -21 | 2.72
72 | COc1ccc(N2CCN(Cc3nc4nc(C)cc(N(C)C)n4n3)CC2)cc1 | 0 | 0.08
73 | Cc1nnc(CN2CCC(CNC(=O)c3ccccc3)CC2)o1 | -13 | 2.58
74 | CN(C)c1ccc(S(=O)(=O)NCc2nnc(N(C)C)[nH]2)cc1 | -14 | 2.24
75 | COCC(=O)N[C@H]1CCCC[C@@H]1OC | -11 | 1.11
76 | Cc1ccc(CN(C)CCn2ccnc2C)s1 | -13 | 1.3
77 | O=C(c1ccc(Cl)cc1)n1nc(Nc2ccc(Cl)cc2)cc1Nc1ccc(Cl)cc1 | -13 | 1.94
78 | COCn1ccc(C(=O)NC(C)(C)c2ccc(Br)c(C)c2)n1 | -1 | 0.12
79 | O=C(NC1CCN2CCCC2C1)N(CCc1cccc(F)c1)C1CC1 (stereo not given) | -2 | 0.25
80 | O=C(NC[C@H](NC(=O)c1cscn1)c1ccccc1)c1cscn1 | -5 | 0.61
81 | O=C(Cc1ccc(O)cc1)NC[C@H]1CCN(C2CCCC2)C1 | -5 | 0.67
82 | Cc1sc(-c2ccn[nH]2)cc1NC(=O)c1cccc(C#N)c1 | -21 | 2.15
83 | Cn1ncnc1CCNCc1cc(Cl)ccc1F | -9 | 0.94
84 | COc1ccc(OC)c(NC(=O)[C@H]2CCCN(c3nnc4c(Cl)cccn34)C2)c1 | -14 | 2.5
85 | CCN(CCC(=O)O)C(=O)CCc1ccc(Cl)cc1 | -11 | 0.96
